Several values for one entry are separate records, joined by “and”; a condition that tells them apart may be missing. Equal entries are not always repeated. In all, about 300,000 compounds went through this assay and about 1,200 (0.4%) were called active. Inconclusive results, whose numbers are uncertain, are shown with a selection of clear calls. The call rests on the fitted dose curve; in most records, active means well fitted inhibition curve with a large enough effect; inconclusive means small, poorly fitted or top-dose-only effect, or another doubt; inactive means no such curve, though single readings can be large or run the other way. A potency beside an inconclusive call is a rough fit, not a confirmed value.
Each molecule was assayed against Lysosomal alpha-glucosidase (Homo sapiens) (UniProt P10253) (assay: qHTS Assay for Inhibitors and Activators of Human alpha-Glucosidase Cleavage of Glycogen). Details: recombinant GAA, glycogen substrate, Amplex Red glucose oxidase fluorescence; series mostly up to 76.4 µM.
How it was run: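 Natural-substrate format: glycogen cleavage by 4 nM human enzyme, glucose read by Amplex Red coupling (Ex 573, Em 610 nm). Normalized to enzyme and no-enzyme controls.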
Potency means the concentration at half of the fitted maximal effect.

| SMILES | Potency |
| --- | --- |
| N#CC1=C(N)Oc2n[nH]c(-c3cccs3)c2C1c1ccccc1C(=O)O (stereo not drawn) | inconclusive: 35.5 µM [inhibitor, single point] |
| O=C1NC(=O)N(c2cccc(Cl)c2)C(=O)/C1=C\c1ccc(Sc2nc3ccccc3[nH]2)o1 | inactive |
| C/C(CC(c1ccccc1)c1c(O)c2ccccc2oc1=O)=N\NC(N)=S (stereo not drawn) | inconclusive: 39.5 µM [inhibitor, single point] |
| CCOc1ccc(C2CC(c3c(O)n(C)c(=O)n(C)c3=O)=NN2)cc1 (stereo not drawn) | inconclusive: 20 µM [inhibitor, single point] |
| CCOC(=O)/C(C#N)=C1/SC(C)C(=O)N1c1ccc(Br)cc1 (stereo not drawn) | inconclusive: 19.8 µM [inhibitor, partial curve] |
| CCCOc1ccc(N2C(=O)CC(N3CC=C(c4ccccc4)CC3)C2=O)cc1 (stereo not drawn) | inconclusive: 50.1 µM [activator, single point] |
| Nc1ccc2c3c(cccc13)CC2 | active: 25.1 µM |
| COc1ccc(-n2c(CNCCc3ccc(C)cc3)nc3ccccc3c2=O)cc1 | inconclusive: 7.08 µM [inhibitor, single point] |
| COC(=O)c1c(C)n(Cc2ccccc2)c2ccc(O)cc12 | inconclusive: 17.6 µM [inhibitor, partial curve] |
| CCOC(=O)[C@@]1(C#N)C(c2ccc(Cl)c(Cl)c2)[C@H](C(N)=O)N2C=C(C(C)=O)C=C[C@H]21 (stereo partly drawn) | inconclusive: 31.4 µM [activator, single point] |
| NNC(=O)c1nn(-c2ccccc2)cc1O | inconclusive: 25.1 µM [inhibitor, partial curve] |
| CN1CCN(c2ccc3nccnc3c2)CC1 | inactive |
| O=C(CSc1ccc(Cl)cc1)NC1=NN(c2ccccc2)C(=O)C1 | inconclusive: 50.1 µM [inhibitor, single point] |
| CCOC(=O)c1c(/N=C/c2c(O)n(-c3cccc(C)c3)c(=O)[nH]c2=O)sc2c1CCCC2 | inconclusive: 14.1 µM [inhibitor, partial curve] |
| CCN1CCN(c2ccc(N)cc2)CC1 | inconclusive: 2.51 µM [inhibitor, partial curve] |
| CCN(C(=O)CN1CC=C(c2ccccc2)CC1)c1c(N)n(Cc2ccccc2)c(=O)[nH]c1=O | inconclusive: 28.2 µM [activator, partial curve] |
| COc1ccc2ccc(O)c(CN3CC=C(c4ccccc4)CC3)c2c1 | inconclusive: 22.4 µM [inhibitor, single point] |
| C#CCOc1cc(C2C3=C(COC3=O)Nc3cc4c(cc32)OCO4)ccc1OC (stereo not drawn) | inconclusive: 44.7 µM [inhibitor, partial curve] |
| CCN1CCN(Cc2cc(Br)cc(OC)c2O)CC1 | inconclusive: 7.03 µM [inhibitor, partial curve] |
| O=C(N/N=C1/CN2CCC1CC2)c1cc2ccccc2cc1O | active: 35.5 µM |
| CN1CCN(c2ccc(N)c(N3CCN(C)CC3)c2)CC1 | inconclusive: 11.2 µM [inhibitor, partial curve] |
| O=C1NC(=O)C(=Cc2cc3c(cc2[N+](=O)[O-])OCO3)C(=O)N1 | inconclusive: 35.5 µM [inhibitor, single point] |
| C=CCc1c(C)nc(C)nc1N/N=C/c1ccc(N(C)C)cc1 | active: 15.8 µM |
| COc1ccc(C2SCC(=O)Nc3c2c(C)nn3-c2ccccc2)cc1OC (stereo not drawn) | inactive |
| CCOP(=O)(OCC)C(O)c1ccc(N(C)C)cc1 (stereo not drawn) | inconclusive: 17.8 µM [inhibitor, partial curve] |
| COc1ccccc1-n1c(O)c(/C=N/NC(=S)Nc2ccccc2)c(=O)[nH]c1=S | inconclusive: 25.1 µM [inhibitor, single point] |
| Cc1ccc(Cl)cc1NC(=O)NCc1cccn1Cc1ccc(F)cc1 | inconclusive: 10 µM [inhibitor, single point] |

| SMILES | Potency |
| --- | --- |
| COC(=O)CC1=C(C(=O)OC)C2(C(=O)Nc3c(C)cccc32)C(C#N)=C(N)O1 (stereo not drawn) | inactive |
| CC1(C)C2([N+](=O)[O-])CN3CN(C2)CC1([N+](=O)[O-])C3 | inconclusive: 22.4 µM [activator, partial curve] |
| O=C(Cn1c(=O)oc2cc(S(=O)(=O)N3CCCC3)ccc21)Nc1cccc(C(F)(F)F)c1 | inconclusive: 11.1 µM [activator, partial curve, poor fit] |
| Cc1cc2c(C(C)C)c(O)c(O)c(C=O)c2c(O)c1-c1c(C)cc2c(C(C)C)c(O)c(O)c(C=O)c2c1O | active: 6.26 µM and active: 8.91 µM |
| COc1cc(C(=O)OCc2cc(=O)c(O)co2)ccc1OC(F)F | inconclusive: 50.1 µM [inhibitor, partial curve] |
| C[C@]12CC[C@@H]3c4ccc(O)c(O)c4CC[C@H]3[C@@H]1CC[C@@H]2O | active: 8.84 µM |
| O=C(O)CC1OCC=C2CN3CCC45c6ccccc6NC4C1C2CC35 (stereo not drawn) | inactive |
| CC(=C1C(=O)c2ccccc2C1=O)N1CCN(CCN=Cc2c(O)n(C)c(=O)n(C)c2=O)CC1 | inconclusive: 35.2 µM [inhibitor, partial curve] |
| C[C@@H]1C[C@@H]2O[C@H]2/C=C\C=C\C(=O)Cc2c(Cl)c(O)cc(O)c2C(=O)O1 | inconclusive: 50.1 µM [inhibitor, single point] |
| O=C1CC(N(O)c2ccccc2)C(=O)N1Cc1ccccc1 (stereo not drawn) | active: 31.6 µM |
| COc1cc(/C=C/C(=O)c2c(O)n(CCc3ccccc3)c(=O)[nH]c2=O)ccc1O | inconclusive: 39.8 µM [inhibitor, partial curve] |
| C=CCn1c(O)c(/C(CC)=N/NC(=S)Nc2ccccc2)c(=O)[nH]c1=O | inconclusive: 50.1 µM [inhibitor, single point] |
| CCOC(=O)c1c(C)n(CCOC)c2ccc(O)cc12 | inconclusive: 17.6 µM [inhibitor, partial curve] |
| S=c1[nH]nc(-c2cccs2)n1C1CCCCC1 | inconclusive: 22.2 µM [inhibitor, single point] |
| O=C(c1ccccc1)N1CCC2(CC1)OCCO2 | inactive |
| CCN(CC)c1ccc(N=Cc2c(O)n(-c3ccccc3C)c(=O)[nH]c2=O)cc1 | inconclusive: 22.2 µM [inhibitor, single point] |
| ON1C2CCCCC2N(O)C1c1ccccc1 (stereo not drawn) | inconclusive: 12.6 µM [inhibitor, partial curve] |
| O=c1c(O)c(-c2ccc(O)c(O)c2)oc2cc(O)cc(O)c12 | inconclusive: 7.94 µM [inhibitor, partial curve] |
| COc1ccc(OC(=O)Nc2ccc([N+](=O)[O-])cc2OC)cc1 | inconclusive: 3.55 µM [inhibitor, partial curve] |
| COC(=O)c1c(C)n(Cc2ccc3c(c2)OCO3)c2ccc(O)cc12 | inconclusive: 31.6 µM [inhibitor, single point] |
| CCCCn1cnc2cc(NCc3cccc(OC)c3O)ccc21 | inconclusive: 7.88 µM [inhibitor, partial curve] |
| Cc1onc(-c2ccccc2)c1C(=O)Nc1ccc(S(=O)(=O)N2CCCC2)cc1 | active: 14.1 µM |
| Cc1ccc(CC2C(=O)N(C)C(=O)N(C)C2=O)s1 | inconclusive: 28.2 µM [inhibitor, single point] |
| CN1CCc2cc3c(c4c2C1Cc1ccccc1-4)OCO3 (stereo not drawn) | inconclusive: 39.8 µM [activator, partial curve] |
| C=C(C)Cn1c(-c2cccs2)n[nH]c1=S | inconclusive: 22.4 µM [inhibitor, partial curve] |
| Clc1ccccc1CN1CCN(c2cccc3[nH]ccc23)CC1 | inconclusive: 31.4 µM [inhibitor, partial curve] |

Reference: PubChem BioAssay AID2100 (National Center for Advancing Translational Sciences (NCATS), 2009)
